Laboratory results reported in PubChem BioAssay (NCATS).
The inconclusive results got no clear call from the source; some entries with a clear call stand among them for comparison. For some assays here: Where the call is inconclusive, the potency comes from a doubtful curve fit. Active and inactive are the calls of the source. Unless noted, calls follow the shape of the dose curve; as a rule, active = well fitted curve in the direction sought with a large enough effect; inconclusive = small, poorly fitted or top-dose-only effect, or another doubt; inactive = no such curve, though single readings can be large; an effect the other way counts as inactive or inconclusive.

Columns and labels:
[1] = NCATS anti-infectives library activity on HEK293 viability as a counter-qHTS vs the C. elegans viability qHTS (AID 1745854); conditions: HEK293 viability counter-screen; series mostly up to 83.3 µM
How it was run: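 Cytotoxicity counter-screen to a worm viability qHTS: CellTiter-Glo luminescence read 10 min after reagent addition. Compounds (final up to 41.7 uM, a 1:5 dilution series) incubated 24 hr at 37C with 1,500 HEK293 cells per well; digitonin control.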

[2] = qHTS Assay for Identification of Small Molecule Agonists for Thrombopoietin (TPO) Signaling Pathway (AID 917); also: potency is read from the fitted curve at half-maximal effect
How it was run: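 Luciferase reporter (Glycoprotein IIb promoter) in IL-3-deprived Ba/F3 cells carrying human TPO receptor; compounds co-added with 26 pM TPO, incubated 24 h, 37 C. Steadylite luminescence measured after 10 min.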

[3] = target: Muscarinic acetylcholine receptor M1 (Rattus norvegicus) (UniProt P08482); assay: qHTS Assay for Antagonists of Acetylcholine Muscarinic M1 Receptor: Kinetic Measurement of Intracellular Calcium Response (AID 943); also: potency is read from the fitted curve at half-maximal effect; nearly all actives have a fitted effect of over 75% in size
Chain of UniProt P08482 (P08482 whole entry, looked up): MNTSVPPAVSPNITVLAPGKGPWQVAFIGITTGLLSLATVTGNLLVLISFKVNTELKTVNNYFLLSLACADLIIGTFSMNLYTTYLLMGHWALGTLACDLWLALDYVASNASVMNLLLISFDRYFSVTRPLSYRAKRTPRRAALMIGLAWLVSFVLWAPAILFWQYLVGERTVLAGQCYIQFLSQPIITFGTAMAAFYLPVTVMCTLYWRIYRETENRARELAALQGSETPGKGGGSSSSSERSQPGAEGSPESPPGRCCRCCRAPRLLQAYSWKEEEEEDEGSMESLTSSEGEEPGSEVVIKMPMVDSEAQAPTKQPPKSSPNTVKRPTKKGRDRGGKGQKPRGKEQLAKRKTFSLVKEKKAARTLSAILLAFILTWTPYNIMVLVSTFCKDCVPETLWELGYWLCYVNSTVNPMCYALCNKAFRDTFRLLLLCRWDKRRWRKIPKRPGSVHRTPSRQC
How it was run: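 Antagonism measured as reduction of carbachol-evoked (EC80, 100 nM final) calcium flux in rat M1-CHO cells after 10 min compound exposure. Fluo-4 signal read kinetically; ratio of maximal to basal fluorescence.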

[4] = target: Endonuclease 4 (Escherichia coli (strain K12)) (UniProt P0A6C1); assay: Counterscreen for APE1 Inhibitors: qHTS Validation Assay for Inhibitors of Endonuclease IV (AID 1708); also: potency is read from the fitted curve at half-maximal effect
How it was run: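 Conditions: 2 nM enzyme, 50 nM TAMRA/BHQ-2 substrate, pH 7.5 Tris buffer with 2 mM MgCl2, RT. Compound preincubation 15 min; readout three fluorescence reads 60 s apart, third-minus-first.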

[5] = qHTS assay for small molecule agonists of the antioxidant response element (ARE) signaling pathway (AID 651741; active = well fitted activation curve with a large enough effect in the signal ratio; inconclusive = small, poorly fitted or top-dose-only effect, or effect the other way, or a change in a side signal; the % refers to the signal ratio; also: potency is read from the fitted curve at half-maximal effect); conditions: HepG2 ARE-bla reporter, beta-lactamase FRET ratio, 16 h; series mostly up to 96 µM
How it was run: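 Stably integrated ARE-beta-lactamase reporter HepG2 cells; 16 h compound incubation, 37 C; LiveBLAzer FRET substrate 2 h at room temperature; fluorescence intensity.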

[6] = target: Cytochrome P450 2D6 (Homo sapiens) (UniProt P10635); assay: qHTS Assay for Inhibitors and Substrates of Cytochrome P450 2D6 (AID 891);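 also: luciferin methyl ether substrate demethylated by CYP2D6 with NADPH regeneration; top concentration of the series differs between compounds; nearly all actives have a fitted effect of over 60% in size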
Chain of UniProt P10635 (P10635 whole entry, looked up): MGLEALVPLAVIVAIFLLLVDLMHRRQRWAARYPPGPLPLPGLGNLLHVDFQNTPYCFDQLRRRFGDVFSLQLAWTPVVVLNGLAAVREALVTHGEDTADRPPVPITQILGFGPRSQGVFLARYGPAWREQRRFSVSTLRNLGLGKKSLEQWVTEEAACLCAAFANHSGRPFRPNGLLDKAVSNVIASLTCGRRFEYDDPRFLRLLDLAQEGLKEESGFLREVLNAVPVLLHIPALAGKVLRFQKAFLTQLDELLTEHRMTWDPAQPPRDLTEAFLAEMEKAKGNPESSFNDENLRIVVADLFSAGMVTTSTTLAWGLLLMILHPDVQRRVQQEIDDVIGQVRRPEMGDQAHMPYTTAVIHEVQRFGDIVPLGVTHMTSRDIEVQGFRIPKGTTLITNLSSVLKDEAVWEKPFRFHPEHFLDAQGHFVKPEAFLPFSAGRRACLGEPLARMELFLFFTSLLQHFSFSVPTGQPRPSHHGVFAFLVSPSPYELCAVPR
How it was run: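 Luminescent read-out of luciferin formed by 5 nM human CYP2D6 demethylating 30 uM Luciferin-ME EGE (Km level) over 60 min at room temperature after NADPH regeneration addition. Data normalized to full inhibition by 1.43 uM quinidine.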

[7] = qHTS for differential inhibitors of proliferation of Plasmodium falciparum line 7G8 (AID 1815);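 also: potency is read from the fitted curve at half-maximal effect; parasite growth measured after three days of incubation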
[8] = qHTS for differential inhibitors of proliferation of Plasmodium falciparum line GB4 (AID 1816); conditions: Potency: Plasmodium falciparum GB4 proliferation inhibition;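 also: potency is read from the fitted curve at half-maximal effect; parasite growth measured after 72 h incubation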
[9] = qHTS for differential inhibitors of proliferation of Plasmodium falciparum line 3D7 (AID 1876); also: potency is read from the fitted curve at half-maximal effect
[10] = qHTS for differential inhibitors of proliferation of Plasmodium falciparum line D10 (AID 1877);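 also: potency is read from the fitted curve at half-maximal effect; parasites grown with compound for 72 h before DNA staining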
[11] = qHTS for differential inhibitors of proliferation of Plasmodium falciparum line Dd2 (AID 1882); conditions: Potency: Plasmodium falciparum Dd2 proliferation inhibition; also: potency is read from the fitted curve at half-maximal effect; nearly all actives have a fitted effect of over 65% in size
How it was run: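 SYBR Green DNA fluorescence (ex 485, em 535 nm) after overnight lysis quantifies parasite growth; compound exposure lasted 72 h at 37 C on infected red cells at 2.5% hematocrit, 0.3% parasitemia (final). Artemisinin 0.29 uM and vehicle wells define normalization.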

[12] = qHTS for differential inhibitors of proliferation of Plasmodium falciparum line HB3 (AID 1886); conditions: Potency: Plasmodium falciparum HB3 proliferation inhibition;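 also: potency is read from the fitted curve at half-maximal effect; parasites grown with compound for 72 h before SYBR Green readout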
[13] = Cytometric Cell-Based qHTS for Inhibitors of the mTORC1 Signaling Pathway in MEF (Tsc2-/-, p53-/-) Cells (AID 2660); also: potency is read from the fitted curve at half-maximal effect
How it was run: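 Immunofluorescence qHTS of rpS6 Ser235/236 phosphorylation: MEFs (Tsc2-/-, p53-/-) treated 24 h, 37 C, in DMEM + 10% FBS. Alexa-488 signal normalized to PI count, referenced to rapamycin (7.5 nM) and DMSO; PI cell number recorded for viability.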

[14] = High Content Imaging Cell-Based qHTS for Inhibitors of the mTORC1 Signaling Pathway in MEF Cells (AID 2667); also: potency is read from the fitted curve at half-maximal effect
How it was run: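 Read-out is the share of phospho-rpS6-positive cells per well, from Hoechst-normalized Alexa-488 Ser235/236 staining imaged on IN Cell. Cells: WT Tsc2-expressing Tsc2-/-, p53-/- MEFs exposed to compound for 24 hrs.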

[15] = Cytometry Cell-Based qHTS for Inhibitors of the mTORC1 Signaling Pathway in MEF cells (AID 2668); also: potency is read from the fitted curve at half-maximal effect
How it was run: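 Phospho-rpS6 (Ser235/236) immunofluorescence over PI signal, scored as % positive cells using thresholds from 7.5 nM rapamycin and DMSO wells, after 24 h compound exposure of WT-Tsc2-rescued Tsc2-/-, p53-/- MEFs. PI cell count recorded for viability.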

[16] = Validation screen for small molecules that induce DNA re-replication in MCF 10A normal breast cells (AID 463097); also: potency is read from the fitted curve at half-maximal effect; nearly all actives have a fitted effect of over 60% in size
How it was run: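 Read-out is Hoechst total nuclear intensity by fluorescence scanning imager, flagging increased high-DNA-content nuclei. Compounds were incubated with MCF 10A cells for 48 hr (37 C, 5% CO2) before 40 min staining.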

[17] = target: Thioredoxin reductase 1, cytoplasmic (Rattus norvegicus) (UniProt O89049); assay: qHTS Assay for Inhibitors of Mammalian Selenoprotein Thioredoxin Reductase 1 (TrxR1) (AID 488773); conditions: Potency: inhibition; also: potency is read from the fitted curve at half-maximal effect; nearly all actives have a fitted effect of over 40% in size
Chain of UniProt O89049 (O89049 whole entry, looked up): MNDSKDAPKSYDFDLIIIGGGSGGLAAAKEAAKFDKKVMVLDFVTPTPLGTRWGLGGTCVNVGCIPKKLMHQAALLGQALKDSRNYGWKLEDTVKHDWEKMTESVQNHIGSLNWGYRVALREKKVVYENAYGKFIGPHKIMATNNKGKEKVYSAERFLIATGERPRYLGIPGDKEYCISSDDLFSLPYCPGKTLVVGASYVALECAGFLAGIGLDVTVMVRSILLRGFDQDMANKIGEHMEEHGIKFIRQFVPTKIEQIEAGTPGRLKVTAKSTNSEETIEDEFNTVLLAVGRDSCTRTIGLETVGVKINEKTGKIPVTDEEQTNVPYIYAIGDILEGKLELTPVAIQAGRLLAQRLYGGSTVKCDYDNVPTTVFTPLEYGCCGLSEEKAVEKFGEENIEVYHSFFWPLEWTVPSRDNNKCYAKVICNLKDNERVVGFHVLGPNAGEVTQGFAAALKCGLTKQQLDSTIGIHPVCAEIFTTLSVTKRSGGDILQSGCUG
How it was run: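 Inhibition is scored from the loss of NADPH fluorescence between first and last reads of an 8-min kinetic run. Selenite (400 uM) was the substrate, added after 15 min compound preincubation at room temperature.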

[18] = target: D(1A) dopamine receptor (Homo sapiens) (UniProt P21728); assay: HTS Assay for Allosteric Agonists of the Human D1 Dopamine Receptor: Primary Screen for Potentiators (AID 488982); also: potency is read from the fitted curve at half-maximal effect
Chain of UniProt P21728 (P21728 whole entry, looked up): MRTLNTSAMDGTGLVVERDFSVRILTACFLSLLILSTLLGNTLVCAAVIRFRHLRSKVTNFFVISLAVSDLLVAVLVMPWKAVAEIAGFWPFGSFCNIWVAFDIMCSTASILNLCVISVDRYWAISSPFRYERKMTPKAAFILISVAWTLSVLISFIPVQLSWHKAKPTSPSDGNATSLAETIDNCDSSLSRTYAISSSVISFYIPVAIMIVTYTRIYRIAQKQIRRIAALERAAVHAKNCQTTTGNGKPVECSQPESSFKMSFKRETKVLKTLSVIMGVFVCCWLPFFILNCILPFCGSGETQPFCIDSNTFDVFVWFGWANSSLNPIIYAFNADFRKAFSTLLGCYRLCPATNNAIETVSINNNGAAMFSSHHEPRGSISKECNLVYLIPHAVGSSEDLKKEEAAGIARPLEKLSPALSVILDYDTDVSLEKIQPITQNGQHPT
How it was run: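 Tetracycline-induced HEK293 Trex D1 cells with forced coupling to calcium, loaded with no-wash calcium dye; kinetic fluorescence read 180 s after compound addition for agonism, then a further 180 s after an EC20 dopamine challenge for potentiation.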

[19] = target: D(1A) dopamine receptor (Homo sapiens) (UniProt P21728); assay: HTS Assay for Allosteric Agonists of the Human D1 Dopamine Receptor: Primary Screen for Antagonists (AID 488983);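 also: calcium flux response to an EC80 dopamine challenge measured with no-wash dye; potency is read from the fitted curve at half-maximal effect; nearly all actives have a fitted effect of over 65% in size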
How it was run: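 Calcium-flux read-out in inducible HEK293 T-REx cells expressing D1, dye-loaded 30–90 min at room temperature. Kinetic reads: 180 s after compound (agonist phase), then 180 s after an EC80 dopamine challenge.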

[20] = Validation screen for small molecules that induce genotoxicity in human embryonic kidney (HEK293T) cells expressing luciferase-tagged ELG1 (AID 493106); also: potency is read from the fitted curve at half-maximal effect
How it was run: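 ELG1-luciferase reporter readout (ONE-Glo, 30 min, room temperature) after 16 hr compound treatment at 37 °C of HEK293T cells at 2,000 per well. Rising luminescence flags genotoxic stress.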

[21] = target: ATPase family AAA domain-containing protein 5 (Homo sapiens) (UniProt Q96QE3); assay: Validation screen for small molecules that inhibit ELG1-dependent DNA repair in human embryonic kidney (HEK293T) cells expressing luciferase-tagged ELG1 (AID 493107); conditions: HEK293T ELG1-luciferase level, luminescence, 5-fluorouridine co-treatment, 16 h; series mostly up to 46.1 µM; also: potency is read from the fitted curve at half-maximal effect; nearly all actives have a fitted effect of over 70% in size
Chain of UniProt Q96QE3 (Q96QE3 whole entry, looked up, the tested form may be a part): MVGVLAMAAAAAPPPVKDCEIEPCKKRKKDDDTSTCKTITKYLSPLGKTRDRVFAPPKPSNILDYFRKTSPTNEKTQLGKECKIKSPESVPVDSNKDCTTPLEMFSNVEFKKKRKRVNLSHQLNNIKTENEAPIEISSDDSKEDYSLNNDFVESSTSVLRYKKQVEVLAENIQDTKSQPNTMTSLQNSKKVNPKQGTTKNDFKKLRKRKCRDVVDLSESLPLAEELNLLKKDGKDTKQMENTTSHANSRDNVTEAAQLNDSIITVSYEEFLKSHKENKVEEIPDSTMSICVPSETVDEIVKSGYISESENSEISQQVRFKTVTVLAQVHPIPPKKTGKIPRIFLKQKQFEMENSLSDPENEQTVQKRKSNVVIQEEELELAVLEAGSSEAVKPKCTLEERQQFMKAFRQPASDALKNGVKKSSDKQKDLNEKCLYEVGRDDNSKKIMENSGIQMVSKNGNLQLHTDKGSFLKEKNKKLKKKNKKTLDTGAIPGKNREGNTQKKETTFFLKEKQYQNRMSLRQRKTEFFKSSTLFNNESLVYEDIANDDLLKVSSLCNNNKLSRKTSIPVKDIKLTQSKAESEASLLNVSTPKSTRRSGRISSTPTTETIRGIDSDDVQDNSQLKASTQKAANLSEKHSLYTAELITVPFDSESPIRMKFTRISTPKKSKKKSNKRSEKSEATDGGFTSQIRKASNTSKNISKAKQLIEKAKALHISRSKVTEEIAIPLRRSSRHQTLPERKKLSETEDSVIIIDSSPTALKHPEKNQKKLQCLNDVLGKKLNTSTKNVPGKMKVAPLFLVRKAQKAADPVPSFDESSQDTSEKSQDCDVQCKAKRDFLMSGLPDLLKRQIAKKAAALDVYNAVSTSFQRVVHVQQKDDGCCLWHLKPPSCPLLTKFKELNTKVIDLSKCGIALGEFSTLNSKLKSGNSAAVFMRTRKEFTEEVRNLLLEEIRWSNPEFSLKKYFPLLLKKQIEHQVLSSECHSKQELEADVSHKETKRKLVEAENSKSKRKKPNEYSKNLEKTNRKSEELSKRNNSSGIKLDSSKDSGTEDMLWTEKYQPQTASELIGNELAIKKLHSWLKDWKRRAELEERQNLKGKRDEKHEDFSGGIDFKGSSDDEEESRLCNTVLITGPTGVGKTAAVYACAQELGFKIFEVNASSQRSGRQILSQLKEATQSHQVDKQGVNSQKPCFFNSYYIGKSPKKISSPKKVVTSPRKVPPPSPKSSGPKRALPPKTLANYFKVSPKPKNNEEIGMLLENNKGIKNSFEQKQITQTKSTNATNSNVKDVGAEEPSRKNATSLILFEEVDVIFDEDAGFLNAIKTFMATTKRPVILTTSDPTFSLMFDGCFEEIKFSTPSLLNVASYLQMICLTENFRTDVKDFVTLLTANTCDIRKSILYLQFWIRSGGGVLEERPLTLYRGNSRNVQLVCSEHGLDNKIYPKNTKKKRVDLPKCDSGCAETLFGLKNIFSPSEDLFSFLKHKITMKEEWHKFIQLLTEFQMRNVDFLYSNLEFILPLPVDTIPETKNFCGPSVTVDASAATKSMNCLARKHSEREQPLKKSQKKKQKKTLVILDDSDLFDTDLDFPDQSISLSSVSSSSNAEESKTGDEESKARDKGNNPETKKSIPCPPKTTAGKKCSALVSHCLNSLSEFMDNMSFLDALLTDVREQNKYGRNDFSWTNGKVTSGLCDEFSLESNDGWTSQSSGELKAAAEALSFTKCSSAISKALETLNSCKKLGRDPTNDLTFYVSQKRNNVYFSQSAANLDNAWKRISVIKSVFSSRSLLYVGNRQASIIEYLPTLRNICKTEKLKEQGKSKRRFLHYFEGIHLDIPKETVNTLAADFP
How it was run: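 Luciferase read-out, ONE-Glo, 30 min at room temperature, follows 16 h co-exposure at 37 C of compound and the DNA-damaging agent 5-fluorouridine. Cells: HEK293T with ELG1-luciferase fusion, 2,000 per well, DMSO as vehicle.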

[22] = target: phosphoglycerate mutase (Leishmania major) (UniProt Q4Q090); assay: qHTS Validation Assay to Find Inhibitors of Phosphoglycerate Mutase (AID 504548); conditions: biochemical enzyme activity, inhibition qHTS; also: potency is read from the fitted curve at half-maximal effect
How it was run: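 L. major PGAM (1.25nM final) was added to substrate buffer and pinned compound, incubated 45 minutes at room temperature, then Kinase-GloPlus added; luminescence read after 10 minutes. Buffer: 100 mM TEA pH 7.6, 5 mM MgCl2, 0.01% Tween-20.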

[23] = target: DNA dC->dU-editing enzyme APOBEC-3G (Homo sapiens) (UniProt Q9HC16); assay: qHTS for inhibitors of Vif-A3G interactions: Validation (AID 588379); also: potency is read from the fitted curve at half-maximal effect
Chain of UniProt Q9HC16 (Q9HC16 whole entry, looked up): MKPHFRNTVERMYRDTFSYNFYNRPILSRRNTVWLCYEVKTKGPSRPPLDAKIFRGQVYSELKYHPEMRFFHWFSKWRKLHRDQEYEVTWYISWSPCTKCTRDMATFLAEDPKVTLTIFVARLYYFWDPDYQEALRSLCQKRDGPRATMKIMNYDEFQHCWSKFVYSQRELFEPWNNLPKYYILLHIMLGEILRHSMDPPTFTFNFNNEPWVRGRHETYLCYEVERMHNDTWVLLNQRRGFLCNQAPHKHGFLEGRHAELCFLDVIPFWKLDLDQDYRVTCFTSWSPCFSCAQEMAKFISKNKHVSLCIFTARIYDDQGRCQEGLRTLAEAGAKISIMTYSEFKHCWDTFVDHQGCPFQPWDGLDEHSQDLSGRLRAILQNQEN
How it was run: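 Yellow fluorescence (Ex 488, Em 500-530) of Vif-coexpressing HeLa A3G-eYFP cells, scanned by Acumen cytometer, reports blocked A3G degradation. Cells plated at 700/well overnight at 37 deg C before compound addition, then a further overnight compound incubation at 37 deg C.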

[24] = qHTS for differential inhibitors of proliferation of Plasmodium falciparum line W2 (AID 1883); conditions: Potency: Plasmodium falciparum W2 proliferation inhibition;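 also: potency is read from the fitted curve at half-maximal effect; parasites grown with compound for 72 h before lysis and staining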
[25] = qHTS Assay for Modulators of Human Peripheral Myelin Protein 22 (PMP22) Expression/Activity (AID 1967; active = well fitted curve in the direction sought with a large enough effect in the signal ratio; inconclusive = small, poorly fitted or top-dose-only effect, or effect the other way, or a change in a side signal; inactive = no such curve, though single readings can be large or run the other way; the % refers to the signal ratio); conditions: Cell-based PMP22 reporter, dual-color luciferase ratio, mouse Pmp22 promoter in mouse Schwann cells; series mostly up to 115 µM
How it was run: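 Readout is the corrected green/red luminescence ratio after 24 h compound exposure, normalised to untreated cells (0%). Engineered MSC80 mouse Schwann cells express green luciferase from the mouse Pmp22 promoter and red luciferase from EF-alpha as internal control.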

Measured: Potency
Tags tell the direction and shape of the fitted curve.

COC1=C[C@]23CCCN2CCc2cc4c(cc2[C@@H]3[C@@H]1O)OCO4
inactive: [1]

C[C@@H](COc1ccc(Oc2ccccc2)cc1)Oc1ccccn1
inactive: [1]

CC(=O)C(C)=O
inconclusive: [2] 10 µM [inhibitor, single point] | [3] 0.0251 µM [inhibitor, full curve, poor fit] | [4] 4.47 µM [inhibitor, full curve, poor fit] | [5] 59.6 µM [activator, partial curve, poor fit]

Nc1nc2ccc(Cl)cc2c2nc(-c3ccco3)nn12
inconclusive: [2] 12.6 µM [inhibitor, partial curve] | [7] 7.94 µM [inhibitor, partial curve] | [8] 11.2 µM [inhibitor, partial curve] | [9] 10 µM [inhibitor, single point] | [10] 6.31 µM [inhibitor, partial curve] | [11] 11.2 µM [inhibitor, single point] | [12] 5.01 µM [inhibitor, partial curve, poor fit] | [13] 14.7 µM [falling, single point] | [14] 18.5 µM [falling, single point] | [16] 10 µM [activator, partial curve] | [17] 10.6 µM [inhibitor, partial curve] | [19] 6.31 µM [activator, partial curve] | [20] 6.51 µM [activator, full curve, poor fit] | [21] 29.1 µM [inhibitor, single point] | [22] 21.3 µM [inhibitor, partial curve, poor fit]
active: [15] 5.85 µM | [18] 1.3 µM | [23] 0.596 µM
inactive: [6]

Cc1nnc(SCC2=C(C(=O)O)N3C(=O)[C@@H](NC(=O)Cn4cnnn4)[C@H]3SC2)s1
inconclusive: [7] 11.2 µM [inhibitor, partial curve] | [8] 11.2 µM [inhibitor, single point] | [24] 14.1 µM [inhibitor, partial curve, poor fit]

CCCN1CCC[C@@H]2Cc3n[nH]cc3C[C@H]21
inconclusive: [7] 7.08 µM [inhibitor, partial curve, poor fit] | [24] 7.94 µM [inhibitor, partial curve]
inactive: [9] | [25]
